Cytotoxicity call and growth inhibition call data for 27 compounds are collected here from the antibiotic and cytotoxicity screens of Wong et al. (2023).

One experiment relates to HSkMC. The experiment in a line: cytotoxicity call (relative viability < 0.9). To be noted: 10 µM.
Another experiment has as its system HepG2. Put plainly: cytotoxicity call (relative viability < 0.9). The following applies: 10 µM.
In the next experiment the test system is S. aureus RN4220. The experiment in a line: growth inhibition call (relative growth <= 0.2). To be noted: 50 µM.

Molecules are shown by their SMILES. The list shows a part of the results.

On to `C[C@H]1CN([C@@H](C)CO)C(=O)c2cc(NC(=O)CCN3CCOCC3)ccc2O[C@@H]1CN(C)S(=O)(=O)c1ccccc1`, for which the cytotoxicity call with HSkMC and with HepG2 was “inactive” each time. Also, in the experiment on S. aureus RN4220, the growth inhibition call was “inactive”.

For the compound `C[C@@H]1CN([C@@H](C)CO)C(=O)c2cc(NS(=O)(=O)c3cn(C)cn3)ccc2O[C@H]1CN(C)S(=O)(=O)c1cccs1`, in the experiment with HSkMC, the cytotoxicity call was “inactive”. In addition, the cytotoxicity call in the experiment with HepG2 is “active”. In addition, the growth inhibition call with S. aureus RN4220 was “inactive”.

As to `C[C@@H]1CCCCO[C@@H](CN(C)C(=O)C2CCCCC2)[C@@H](C)CN([C@H](C)CO)C(=O)c2cc(NC(=O)NC3CCCCC3)ccc2O1`, the cytotoxicity call in the experiment with HSkMC and in the experiment with HepG2 was “inactive” each time. Further, the growth inhibition call in the experiment on S. aureus RN4220 was “inactive”.

As to `Cn1cnc(S(=O)(=O)N2C[C@H](O)COC[C@H]3O[C@@H](CC(=O)NC4Cc5ccccc5C4)CC[C@@H]32)c1`, the cytotoxicity call in the experiment on HSkMC and in the experiment on HepG2 was “inactive” throughout. Besides, in the experiment with S. aureus RN4220, the growth inhibition call was “inactive”.

Regarding `Cc1noc(C)c1S(=O)(=O)Nc1ccc2c(c1)C(=O)N([C@H](C)CO)C[C@H](C)[C@H](CN(C)Cc1ccc(Cl)c(Cl)c1)OCCCC[C@@H](C)O2`, the cytotoxicity call in the experiment on HSkMC and with HepG2 was “inactive” throughout. Besides, in the experiment on S. aureus RN4220, the growth inhibition call was “inactive”.

Regarding `CC(C)NC(=O)Nc1ccc2c(c1)C(=O)N([C@@H](C)CO)C[C@@H](C)[C@H](CN(C)C(=O)Nc1cccc3ccccc13)OCCCC[C@@H](C)O2`, the cytotoxicity call in the experiment with HSkMC and in the experiment on HepG2 was “inactive” in each case. For the same compound, in the experiment on S. aureus RN4220, the growth inhibition call is “inactive”.

Take `Cc1ccc(S(=O)(=O)N2C[C@@H](O)COC[C@H]3O[C@@H](CC(=O)NCCCN(C)C)CC[C@@H]32)cc1`: the cytotoxicity call in the experiment on HSkMC and with HepG2 was “inactive” in each case. Further, in the experiment on S. aureus RN4220, the growth inhibition call is “inactive”.

As to `C[C@@H]1CN([C@@H](C)CO)C(=O)c2cc(NC(=O)Nc3ccc(F)cc3)ccc2O[C@@H](C)CCCCO[C@@H]1CN(C)CC1CCCCC1`, the cytotoxicity call with HSkMC and with HepG2 was “active” each time. Also, in the experiment with S. aureus RN4220, the growth inhibition call is “inactive”.

For the compound `COc1ccc(C#Cc2ccc3c(c2)[C@]2(C(=O)N3)[C@H](c3ccc(O)cc3)N3[C@H](c4ccccc4)[C@H](c4ccccc4)OC(=O)[C@H]3[C@@H]2C(=O)N2CCCCCCC2)cc1`, the cytotoxicity call in the experiment on HSkMC and with HepG2 was “inactive” in each case. Also, the growth inhibition call in the experiment on S. aureus RN4220 was “inactive”.

For the compound `Cc1noc(C)c1NC(=O)N(C)C[C@@H]1Oc2ccc(NC(=O)CCN3CCOCC3)cc2CC(=O)N([C@@H](C)CO)C[C@@H]1C`, the cytotoxicity call in the experiment with HSkMC and with HepG2 was “inactive” in each case. For the same compound, the growth inhibition call in the experiment with S. aureus RN4220 is “inactive”.

`C[C@H](CO)N1C[C@H](C)[C@@H](CN(C)S(C)(=O)=O)Oc2c(NC(=O)Nc3ccc(C(F)(F)F)cc3)cccc2C1=O`: the cytotoxicity call with HSkMC and with HepG2 was “inactive” throughout. The growth inhibition call in the experiment with S. aureus RN4220 is “inactive”.

As to `C[C@@]12CC[C@@H]3c4ccc(O)cc4C[C@H](CCCCCCCCC[S@@](=O)CCCC(F)(F)C(F)(F)F)[C@@H]3[C@@H]1CC[C@@H]2O`, the cytotoxicity call in the experiment on HSkMC and in the experiment with HepG2 was “inactive” throughout. Further, in the experiment with S. aureus RN4220, the growth inhibition call was “inactive”.

With `C[C@H](CO)N1C[C@H](C)[C@H](CN(C)Cc2ccc(Cl)c(Cl)c2)Oc2c(NC(=O)CCCCCC(=O)Nc3ccccc3N)cccc2C1=O`, the cytotoxicity call in the experiment with HSkMC and in the experiment with HepG2 was “inactive” in each case. The growth inhibition call in the experiment with S. aureus RN4220 was “inactive”.

With `C[C@@H]1CN([C@H](C)CO)C(=O)c2cc(NC(=O)Cc3ccccc3)ccc2O[C@@H](C)CCCCO[C@H]1CN(C)C(=O)Cc1ccccc1`, the cytotoxicity call in the experiment with HSkMC and in the experiment on HepG2 was “inactive” in each case. Moreover, the growth inhibition call in the experiment on S. aureus RN4220 is “inactive”.

As for `C[C@@H]1CCCCO[C@@H](CN(C)S(=O)(=O)c2cn(C)cn2)[C@H](C)CN([C@H](C)CO)C(=O)c2cc(NS(=O)(=O)c3cn(C)cn3)ccc2O1`, the cytotoxicity call in the experiment on HSkMC and in the experiment with HepG2 was “inactive” each time. The growth inhibition call with S. aureus RN4220 is “inactive”.

`CC(=O)Nc1ccccc1`: the cytotoxicity call with HSkMC and with HepG2 was “inactive” in each case. The growth inhibition call with S. aureus RN4220 was “inactive”.

For `Cc1noc(C)c1NC(=O)N(C)C[C@@H]1OCCCC[C@H](C)Oc2ccc(NC(=O)Nc3ccc(C(F)(F)F)cc3)cc2C(=O)N([C@H](C)CO)C[C@@H]1C`, the cytotoxicity call with HSkMC and in the experiment on HepG2 was “inactive” in each case. In addition, in the experiment on S. aureus RN4220, the growth inhibition call is “inactive”.

For the compound `CNC[C@@H]1OCCCC[C@@H](C)Oc2ccc(NS(=O)(=O)c3cn(C)cn3)cc2C(=O)N([C@@H](C)CO)C[C@H]1C`, the cytotoxicity call with HSkMC and with HepG2 was “inactive” throughout. Moreover, the growth inhibition call in the experiment on S. aureus RN4220 is “inactive”.

On to `O=C1OCCC=C[C@H]2O[C@@]34C=CCN(c5ccc6ccccc6c5)C(=O)[C@H]3N(CCCCCCO)C(=O)[C@@H]4[C@@H]12`, for which the cytotoxicity call in the experiment on HSkMC and in the experiment with HepG2 was “inactive” each time. In addition, the growth inhibition call with S. aureus RN4220 is “inactive”.

Regarding `C[C@@H]1CN([C@@H](C)CO)C(=O)c2cc(NS(C)(=O)=O)ccc2O[C@@H](C)CCCCO[C@@H]1CN(C)C(=O)CCCN(C)C`, the cytotoxicity call with HSkMC and in the experiment with HepG2 was “inactive” each time. Further, the growth inhibition call with S. aureus RN4220 was “inactive”.

On to `C[C@@H]1CCCCO[C@@H](CN(C)Cc2ccc(Cl)c(Cl)c2)[C@@H](C)CN([C@H](C)CO)C(=O)c2cc(NC(=O)CCCN(C)C)ccc2O1`, for which the cytotoxicity call in the experiment on HSkMC is “inactive”. Moreover, the cytotoxicity call with HepG2 was “active”. Moreover, the growth inhibition call in the experiment with S. aureus RN4220 was “inactive”.

For `C[C@@H]1CN([C@H](C)CO)C(=O)Cc2cc(NC(=O)Nc3ccc(F)cc3)ccc2O[C@H]1CN(C)Cc1ccc(C(=O)Nc2ccccc2N)cc1`, the cytotoxicity call in the experiment on HSkMC and in the experiment on HepG2 was “inactive” throughout. In the experiment on S. aureus RN4220, the growth inhibition call is “inactive”.

For the compound `Cc1noc(C)c1S(=O)(=O)Nc1ccc2c(c1)C(=O)N([C@H](C)CO)C[C@H](C)[C@@H](CN(C)C(=O)Nc1ccccc1)OCCCC[C@@H](C)O2`, the cytotoxicity call in the experiment with HSkMC and in the experiment with HepG2 was “inactive” throughout. The growth inhibition call with S. aureus RN4220 is “inactive”.

As for `COCCNC(=O)C[C@@H]1CC[C@H]2[C@@H](COc3ccc(NC(=O)Nc4cccc(F)c4)cc3C(=O)N2C)O1`, the cytotoxicity call with HSkMC and with HepG2 was “inactive” throughout. In addition, in the experiment with S. aureus RN4220, the growth inhibition call was “inactive”.

`Cc1noc(C)c1S(=O)(=O)N(C)C[C@H]1OCCCC[C@@H](C)Oc2ccc(NC(=O)Nc3ccccc3)cc2C(=O)N([C@@H](C)CO)C[C@@H]1C`: the cytotoxicity call with HSkMC was “inactive”. In the experiment with HepG2, the cytotoxicity call was “active”. In addition, the growth inhibition call in the experiment with S. aureus RN4220 was “inactive”.

`CCCC[C@@H](CC)COc1ccc(-c2nc(-c3ccc(OC)cc3)nc(-c3ccc(OC[C@@H](CC)CCCC)cc3O)n2)c(O)c1`: the cytotoxicity call in the experiment on HSkMC (human skeletal muscle cells) and in the experiment with HepG2 was “inactive” each time. Further, the growth inhibition call in the experiment on S. aureus RN4220 was “inactive”.

On to `C[C@@H]1CN([C@@H](C)CO)C(=O)c2cccc(NC(=O)C3CC3)c2O[C@@H]1CN(C)C(=O)Nc1ccc2c(c1)OCO2`, for which the cytotoxicity call with HSkMC and with HepG2 was “inactive” in each case. Further, the growth inhibition call with S. aureus RN4220 is “inactive”.
